{"source": "the supplement of paper PMC6002552", "note": "The other results are listed elsewhere or left out. Single values are uncertain, as repeats are few or missing."}
{"tested_on": "Bacillus subtilis 168 spores", "experiment": "spore germination/outgrowth inhibition class (0 mild or none, 1 inhibitory, 3 highly inhibitory, 4 no outgrowth, 5 no germination) (ordinal class code); higher = stronger inhibition of spore germination/outgrowth", "details": "100 µg/ml; pH 7.4; 8 h", "experimental": "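Heat-activated Bacillus subtilis 168 spores (OD595 0.2) in TSB with AGFK germinants, buffered with 80 mM MOPS at pH 7.4, were exposed to 100 µg/ml compound (Pyxis Discovery library, catalogue IDs). OD595 was followed for 8 h at 37 °C in a plate reader. Each compound was assigned an ordinal inhibition class: 0 mild/no inhibition (reached 2x initial OD within 2-3 h), 1 inhibitory (3-6 h), 3 highly inhibitory (6-8 h), 4 no outgrowth within 8 h, 5 no germination (no OD decline).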"}
{"compound": "Cc1ccc(C)c(-c2c(C)ccc(C)c2C(=O)O)c1C(=O)O", "spore germination/outgrowth inhibition class": "inactive: 0"}
{"compound": "CCc1ccc(NC(=O)c2snnc2C)cc1", "spore germination/outgrowth inhibition class": "inactive: 0"}
{"compound": "Cc1cccc2c1=NC(=O)C=2c1sc(=S)[nH]c1O", "spore germination/outgrowth inhibition class": "active: 3"}
{"compound": "Cc1csc(NC(=O)Nc2ccccc2)n1", "spore germination/outgrowth inhibition class": "inactive: 0"}
{"compound": "c1ccc2[nH]c(-c3cnco3)cc2c1", "spore germination/outgrowth inhibition class": "inactive: 1"}
{"compound": "CCC(C)C(=O)N1CCc2cc(-c3csc(N)n3)ccc21", "note": "(stereo not given)", "spore germination/outgrowth inhibition class": "inactive: 0"}
{"compound": "Clc1ccc(Nc2nc3nonc3n3nnnc23)cc1", "spore germination/outgrowth inhibition class": "active: 4"}
{"compound": "Cc1cccc(NC(=O)c2snnc2C)c1", "spore germination/outgrowth inhibition class": "inactive: 0"}
{"compound": "CCc1[nH]nc2c1C(c1cccc(Cl)c1)C(C#N)=C(N)O2", "note": "(stereo not given)", "spore germination/outgrowth inhibition class": "inactive: 0"}
{"compound": "CCc1[nH]nc2c1C(c1ccccc1)C(C#N)=C(N)O2", "note": "(stereo not given)", "spore germination/outgrowth inhibition class": "inactive: 0"}
{"compound": "CC1=NNC(=S)NC(C)(C)C1", "spore germination/outgrowth inhibition class": "inactive: 0"}
{"compound": "c1ccc2oc(-c3cn[nH]c3)nc2c1", "spore germination/outgrowth inhibition class": "inactive: 0"}
{"compound": "Clc1ccc2[nH]c3c(c2c1)CCc1cn[nH]c1-3", "spore germination/outgrowth inhibition class": "active: 5"}
{"compound": "N#Cc1c(NC(=O)C2CCCO2)sc2c1CCCC2", "note": "(stereo not given)", "spore germination/outgrowth inhibition class": "inactive: 0"}
{"compound": "O=C1C(Cl)=C(NCc2ccco2)C(=O)c2ccccc21", "spore germination/outgrowth inhibition class": "active: 4"}
{"compound": "Cc1ccc(Nc2nnns2)c(C)c1", "spore germination/outgrowth inhibition class": "inactive: 1"}
{"compound": "Cc1nnsc1C(=O)NC(C)c1ccccc1", "note": "(stereo not given)", "spore germination/outgrowth inhibition class": "inactive: 0"}
{"compound": "Cc1ccc2c(c1)c1c(n2C)-c2[nH]ncc2CC1", "spore germination/outgrowth inhibition class": "active: 4"}
{"compound": "c1ccc(-c2cnc3nonc3n2)cc1", "spore germination/outgrowth inhibition class": "active: 4"}
{"compound": "O=C1CC(=O)c2ccccc2-c2ccccc21", "spore germination/outgrowth inhibition class": "active: 4"}
{"compound": "CCOC(=O)c1nonc1NC(C)=O", "spore germination/outgrowth inhibition class": "inactive: 0"}
{"compound": "O=C1NC(=O)c2ccc3c4c(ccc1c24)C(=O)NC3=O", "spore germination/outgrowth inhibition class": "inactive: 0"}
{"compound": "NC(=O)c1c(NC(=O)c2cccs2)sc2c1CCC2", "spore germination/outgrowth inhibition class": "inactive: 0"}
{"compound": "COc1cccc(C2C([N+](=O)[O-])=C(N)Oc3n[nH]c(C)c32)c1", "note": "(stereo not given)", "spore germination/outgrowth inhibition class": "inactive: 0"}
{"compound": "Cc1nnsc1C(=O)Nc1ccccc1", "spore germination/outgrowth inhibition class": "inactive: 0"}
{"compound": "O=C(Nc1ncn[nH]1)C1CCCO1", "note": "(stereo not given)", "spore germination/outgrowth inhibition class": "inactive: 0"}
{"compound": "c1ccc2c3c([nH]c2c1)-c1[nH]ncc1CC3", "spore germination/outgrowth inhibition class": "active: 4"}
{"compound": "NC(N)=Nc1nc(-c2ccc3c(c2)CC(=O)N3)cs1", "spore germination/outgrowth inhibition class": "inactive: 0"}
{"compound": "CCc1[nH]nc2c1C(c1cccc(F)c1)C(C#N)=C(N)O2", "note": "(stereo not given)", "spore germination/outgrowth inhibition class": "inactive: 0"}
{"compound": "N#Cc1c(NC(=O)C2CCCO2)sc2c1CCCCC2", "note": "(stereo not given)", "spore germination/outgrowth inhibition class": "inactive: 0"}
{"compound": "Cc1ncc([N+](=O)[O-])n1CC(=O)O", "spore germination/outgrowth inhibition class": "inactive: 0"}
{"compound": "CCn1ccn2nnnc2c1=Nc1ccccc1", "spore germination/outgrowth inhibition class": "inactive: 0"}
{"compound": "CC(=O)Nc1nc(-c2ccc3c(c2)CCN3C(=O)C2CCCCC2)cs1", "spore germination/outgrowth inhibition class": "inactive: 0"}
{"compound": "c1coc(-c2nc3ccccc3o2)c1", "spore germination/outgrowth inhibition class": "inactive: 0"}
{"compound": "CCc1cccc(NC(=O)c2snnc2C)c1", "spore germination/outgrowth inhibition class": "inactive: 0"}
{"compound": "c1ccc(Nc2nnns2)cc1", "spore germination/outgrowth inhibition class": "inactive: 0"}
{"compound": "CC(=O)Nc1nncs1", "spore germination/outgrowth inhibition class": "inactive: 0"}
{"compound": "Cn1nc(N)c2c(-c3ccccc3)c(C#N)c(N)nc21", "spore germination/outgrowth inhibition class": "inactive: 0"}
{"compound": "CCCC(=O)N1CCc2cc(-c3nc(N)sc3C)ccc21", "spore germination/outgrowth inhibition class": "inactive: 0"}
{"compound": "CCC(=O)Nc1nc(-c2ccc3c(c2)CCN3C(C)=O)cs1", "spore germination/outgrowth inhibition class": "inactive: 0"}
